Holding throughout (assay): uncleaved DNA left, log2 of reads against the no-enzyme library (log2 ratio); higher = less cleavage (more negative = more Rep cleavage of the k-mer); sequences stand for … in CTCGTCCG…ACCGGAGA
Test [1] has as its system T1, Rep nickase domain of Muscovy duck circovirus.
T1 sequence (protein, residues 1-111, tag omitted): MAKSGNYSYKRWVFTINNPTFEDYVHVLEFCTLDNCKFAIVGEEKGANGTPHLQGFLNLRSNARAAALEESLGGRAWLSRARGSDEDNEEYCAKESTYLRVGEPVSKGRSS
Here is the method:
(§1)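 A pool of 90-nt single-stranded DNAs with seven random bases just before the constant AC of the nick site (name = the seven bases) was cut by 3 µM recombinant His6-SUMO-tagged Rep nickase domain (300 nM DNA, 50 mM HEPES pH 8.0, 50 mM NaCl, 1 mM MnCl2, 1 h, 37 °C, three replicates). Uncut DNA was amplified and sequenced.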

For test [2], the system named is T2, Rep nickase domain of banana bunchy top virus.
T2 sequence (protein, residues 1-94, tag omitted): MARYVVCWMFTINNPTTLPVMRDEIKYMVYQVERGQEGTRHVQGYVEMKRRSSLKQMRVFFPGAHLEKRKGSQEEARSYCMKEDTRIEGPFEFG
Here is the method:
as §1

The test system of test [3] is T3, Rep nickase domain of cabbage leaf curl virus.
T3 sequence (protein, residues 1-116, tag omitted): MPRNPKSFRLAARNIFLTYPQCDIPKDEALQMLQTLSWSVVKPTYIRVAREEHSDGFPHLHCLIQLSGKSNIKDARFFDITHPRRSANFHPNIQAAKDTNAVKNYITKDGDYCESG
Here is the method:
as §1

Test [4] deals with T4, Rep nickase domain of chickpea chlorotic dwarf virus.
T4 sequence (protein, residues 1-124, tag omitted): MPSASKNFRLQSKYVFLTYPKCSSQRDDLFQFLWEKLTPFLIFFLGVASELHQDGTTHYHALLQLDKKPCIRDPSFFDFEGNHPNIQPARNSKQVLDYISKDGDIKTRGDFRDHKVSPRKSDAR
Here is the method: as §1
Test [5] concerns T5, Rep nickase domain of faba bean necrotic yellows virus.
T5 sequence (protein, residues 1-98, tag omitted): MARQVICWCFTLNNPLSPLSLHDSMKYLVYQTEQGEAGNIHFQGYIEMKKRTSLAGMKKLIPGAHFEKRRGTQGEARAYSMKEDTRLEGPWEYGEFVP
Here is the method: as §1
Test [6] concerns T6, Rep nickase domain of maize striate mosaic virus.
T6 sequence (protein, residues 1-117, tag omitted): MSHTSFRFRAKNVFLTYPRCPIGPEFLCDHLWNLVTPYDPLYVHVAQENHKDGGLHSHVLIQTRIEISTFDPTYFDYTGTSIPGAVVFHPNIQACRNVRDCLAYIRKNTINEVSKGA
The procedure:
as §1

The test system of test [7] is T7, Rep nickase domain of porcine circovirus 2.
T7 sequence (protein, residues 2-116, tag omitted): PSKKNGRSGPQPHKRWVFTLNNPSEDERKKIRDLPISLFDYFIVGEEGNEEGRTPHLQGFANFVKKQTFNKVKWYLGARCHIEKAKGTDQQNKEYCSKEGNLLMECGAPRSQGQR
Here is the method: as §1
Test [8] has as its system T8, Rep nickase domain of tomato golden mosaic virus.
T8 sequence (protein, residues 1-124, tag omitted): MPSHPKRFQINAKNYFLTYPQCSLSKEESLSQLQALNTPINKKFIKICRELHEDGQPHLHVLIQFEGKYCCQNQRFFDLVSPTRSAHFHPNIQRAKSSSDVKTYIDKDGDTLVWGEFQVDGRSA
Here is the method:
as §1

Test [9] deals with T9, Rep nickase domain of tomato yellow leaf curl virus.
T9 sequence (protein, residues 1-136, tag omitted): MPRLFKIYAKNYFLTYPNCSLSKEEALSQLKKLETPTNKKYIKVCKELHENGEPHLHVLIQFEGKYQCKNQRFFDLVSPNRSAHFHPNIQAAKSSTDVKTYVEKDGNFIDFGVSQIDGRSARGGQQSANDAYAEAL
The procedure: as §1
For test [10], the system named is T10, Rep nickase domain of wheat dwarf virus.
T10 sequence (protein, residues 1-137, tag omitted): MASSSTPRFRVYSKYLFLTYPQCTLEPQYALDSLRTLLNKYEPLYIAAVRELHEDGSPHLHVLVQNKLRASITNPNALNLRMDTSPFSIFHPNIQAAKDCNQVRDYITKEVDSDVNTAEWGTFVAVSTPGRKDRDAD
Here is the method: as §1

This is one part of the list. One pool of 16,384 single-stranded DNAs met each Rep nickase domain in vitro (1 h at 37 °C, 3 µM enzyme); the outer parts of the 90-letter strands are left off. Numbers give uncut DNA relative to the enzyme-free pool, as log2; uncut sequences lie near 0, cut ones below; no hit call is given. Counts are relative to all reads; values above 0 arise when much of the pool is cut.

GCTCGTT: the “uncleaved DNA left (log2)” value in test [1] was 0.0978; in test [2] it was 0.0907; in test [3] it was 0.234; in [4], 0.345; in [5], -0.0203; in test [6] it was 0.187. Also, the “uncleaved DNA left (log2)” value in [7] is -0.0282; in [8] it was 0.056; in test [9], 0.207; in [10], 0.0142.

For AGATCTA, the “uncleaved DNA left (log2)” value was -0.0276 in test [1]; -0.0322 in test [2]; 0.188 in test [3]; -0.0461 in test [4]; -0.0585 in [5]; 0.543 in test [6]. Moreover, the “uncleaved DNA left (log2)” value in [7] was -0.163; in [8], 0.0113; in test [9] it was -0.0711; in [10], 0.132.

For CGCAATT, the “uncleaved DNA left (log2)” value is -0.0785 in [1]; -0.152 in test [2]; -0.296 in test [3]; -1.96 in test [4]; -0.136 in test [5]; -0.606 in [6]. In addition, the “uncleaved DNA left (log2)” value in test [7] was -1.13; in test [8], -0.279; in test [9] it was -0.076; in test [10] it was -0.0776.

Regarding CGACCAA, the “uncleaved DNA left (log2)” value in test [1] is -0.0317; in test [2] it was 0.00573; in test [3], 0.0658; in test [4], 0.366; in [5] it was -0.0167; in [6] it was 0.311. In addition, the “uncleaved DNA left (log2)” value in [7] is -0.0564; in [8], -0.0991; in [9], 0.000265; in [10], 0.12.

Consider CGCTCGC, for which the “uncleaved DNA left (log2)” value in [1] was -0.0523; in test [2], 0.0247; in test [3], -0.204; in test [4], -0.534; in test [5] it was 0.0569; in test [6], -0.726. Also, the “uncleaved DNA left (log2)” value in test [7] was 0.0867; in test [8], -0.0214; in [9], -0.116; in test [10], 0.0451.

On to ACACACG, for which the “uncleaved DNA left (log2)” value in test [1] is 0.0309; in [2], -0.0259; in test [3] it was -0.458; in test [4], 0.792; in test [5], 0.0644; in [6] it was -0.177. In addition, the “uncleaved DNA left (log2)” value in test [7] was 0.137; in test [8], -0.0176; in test [9], -0.0271; in [10], -0.165.

Consider CGAATAA, for which the “uncleaved DNA left (log2)” value was -0.0173 in test [1]; -0.0207 in [2]; -0.229 in test [3]; -0.346 in test [4]; 0.1 in test [5]; -0.454 in test [6]. In addition, the “uncleaved DNA left (log2)” value is 0.0226 in test [7], -0.0707 in test [8], -0.0242 in test [9] and 0.0606 in [10].

In the case of TGTAATT, the “uncleaved DNA left (log2)” value is 0.0882 in [1]; 0.0494 in [2]; 0.174 in test [3]; -1.48 in test [4]; -0.0768 in test [5]; 0.553 in test [6]. For the same sequence, the “uncleaved DNA left (log2)” value in [7] is -1.47; in test [8], -0.0204; in [9], -0.007; in test [10], 0.0869.

Regarding ATTGACC, the “uncleaved DNA left (log2)” value in test [1] was -0.101; in test [2], -0.0164; in [3] it was -0.0113; in test [4] it was 0.646; in test [5] it was -0.109; in test [6], 0.798. The “uncleaved DNA left (log2)” value in test [7] was 0.015; in [8] it was -0.0458; in test [9] it was -0.0541; in [10] it was -0.05.

Turning to GAATCCT, the “uncleaved DNA left (log2)” value was -1.62 in test [1]; -0.0723 in test [2]; -2.84 in test [3]; -2.45 in [4]; 0.000395 in test [5]; -0.977 in [6]. In addition, the “uncleaved DNA left (log2)” value in test [7] is -2.73; in test [8], -1.65; in test [9], 0.0412; in [10] it was -2.12.

In the case of GTCTGAC, the “uncleaved DNA left (log2)” value in test [1] was -0.013; in [2], -0.0446; in test [3], 0.225; in test [4], 0.847; in test [5], -0.00274; in [6], 1.18. The “uncleaved DNA left (log2)” value in test [7] stood at 0.0396; in test [8], 0.0245; in test [9] it was 0.0048; in test [10] it was 0.0636.

Turning to TCCCGTA, the “uncleaved DNA left (log2)” value in [1] was 0.0107; in test [2], -0.0127; in [3], 0.127; in test [4] it was -0.515; in [5], -0.0751; in [6] it was -0.683. In addition, the “uncleaved DNA left (log2)” value in test [7] is -0.0329; in test [8], 0.0127; in [9], 0.0339; in [10], -0.114.

Take CGATCTG: the “uncleaved DNA left (log2)” value is -0.0259 in test [1]; -0.123 in test [2]; -0.0943 in test [3]; 0.604 in test [4]; -0.0816 in test [5]; 1.66 in test [6]. The “uncleaved DNA left (log2)” value in test [7] was -0.0766; in test [8] it was -0.108; in [9], -0.0391; in test [10] it was 0.0661.

GCGGTAC: the “uncleaved DNA left (log2)” value in test [1] was determined as 0.077; in [2], 0.0318; in [3], 0.652; in test [4], 1.16; in test [5], 0.0676; in test [6], 1.73. Moreover, the “uncleaved DNA left (log2)” value in test [7] turned out to be 0.07; in test [8], 0.0751; in test [9] it was 0.133; in test [10], 0.004.

With TCCTTGT, the “uncleaved DNA left (log2)” value in test [1] was -0.19; in test [2], -0.0759; in test [3], -0.123; in [4] it was -0.638; in test [5], -0.0866; in test [6], -0.981. The “uncleaved DNA left (log2)” value is -1.11 in test [7], -0.122 in [8], -0.169 in [9] and -0.135 in [10].
